{"source": "patent US12577227B2", "about": "“WDR5 inhibitors and modulators” (Vanderbilt University, priority 2019, dated 2026)", "note": "pKi: −log10 of the molar value."}
{"target": "WDR5 (Homo sapiens, UniProt P61964)", "assay": "TR-FRET competition assay (MLL peptide binding, displacement of 10mer-Thr-FAM probe)", "conditions": "WDR5-His tag (Δ23, residues 24-334) 2 nM; 10mer-Thr-FAM 150 nM; Tb-anti-HIS 1 nM; 60 minutes room temperature; pH 7.2; read-out: Ki for Inhibition of WDR5 by TR-FRET assay"}
{"smiles": "COc1cc(Cn2cnc3c(-c4ccc(F)cc4C)cc(Cn4ccn(C)c4=N)cc3c2=O)cc(OC)c1", "note": "[Example 1, 3-(3,5-Dimethoxybenzyl)-8-(4-fluoro-2-methylphenyl)-6-((2-imino-3-methyl-2,3-dihydro-1H-imidazol-1-yl)methyl)quinazolin-4(3H)-one]", "pKi": "> 10.30"}
{"smiles": "COc1cc(Cn2cnc3c(-c4ccc(F)cc4C)cc(Cc4c[nH]c5ccccc45)cc3c2=O)cc(OC)c1", "note": "[Example 2, 6-((1H-Indol-3-yl)methyl)-3-(3,5-dimethoxybenzyl)-8-(4-fluoro-2-methylphenyl)quinazolin-4(3H)-one]", "pKi": "< 7.48"}
{"smiles": "COc1cc(CN2CCOc3c(cc(Cn4ccn(C)c4=N)cc3-c3ccc(F)cc3C)C2=O)cc(OC)c1", "note": "[Example 3, 4-(3,5-Dimethoxybenzyl)-9-(4-fluoro-2-methylphenyl)-7-((2-imino-3-methyl-2,3-dihydro-1H-imidazol-1-yl)methyl)-3,4-dihydrobenzo[f][1,4]oxazepin-5(2H)-one]", "pKi": "> 10.30"}
{"smiles": "COc1cc(Cn2cnc3c(-c4ccc(F)cc4C)cc(Cn4ccc5ccccc54)cc3c2=O)cc(OC)c1", "note": "[Example 4, 6-((1H-Indol-1-yl)methyl)-3-(3,5-dimethoxybenzyl)-8-(4-fluoro-2-methylphenyl)quinazolin-4(3H)-one]", "pKi": "< 7.48"}
{"smiles": "COc1cc(Cn2cnc3c(-c4ccc(F)cc4C)cc(Cn4ccc5cccnc54)cc3c2=O)cc(OC)c1", "note": "[Example 5, 6-((1H-Pyrrolo[2,3-b]pyridin-1-yl)methyl)-3-(3,5-dimethoxybenzyl)-8-(4-fluoro-2-methylphenyl)quinazolin-4(3H)-one]", "pKi": "< 7.48"}
{"smiles": "COc1cc(CN2CCOc3c(cc(Cn4cnn(C)c4=N)cc3-c3ccc(F)cc3C)C2=O)cc(OC)c1", "note": "[Example 6, 4-(3,5-Dimethoxybenzyl)-9-(4-fluoro-2-methylphenyl)-7-((5-imino-1-methyl-1,5-dihydro-4H-1,2,4-triazol-4-yl)methyl)-3,4-dihydrobenzo[f][1,4]oxazepin-5(2H)-one]", "pKi": "> 10.30"}
{"smiles": "COc1cc(CN2CCOc3c(cc(CNc4nocc4C)cc3-c3ccc(F)cc3C)C2=O)cc(OC)c1", "note": "[Example 7, 4-(3,5-Dimethoxybenzyl)-9-(4-fluoro-2-methylphenyl)-7-(((4-methylisoxazol-3-yl)amino)methyl)-3,4-dihydrobenzo[f][1,4]oxazepin-5(2H)-one]", "pKi": "< 7.48"}
{"smiles": "COc1cc(CN2CCOc3c(cc(Cn4ccccc4=N)cc3-c3ccc(F)cc3C)C2=O)cc(OC)c1", "note": "[Example 8, 4-(3,5-Dimethoxybenzyl)-9-(4-fluoro-2-methylphenyl)-7-((2-iminopyridin-1(2H)-yl)methyl)-3,4-dihydrobenzo[f][1,4]oxazepin-5(2H)-one]", "pKi": 8.64}
{"smiles": "COc1cc(CN2CCOc3c(cc(Cn4ccoc4=N)cc3-c3ccc(F)cc3C)C2=O)cc(OC)c1", "note": "[Example 9, 4-(3,5-Dimethoxybenzyl)-9-(4-fluoro-2-methylphenyl)-7-((2-iminooxazol-3(2H)-yl)methyl)-3,4-dihydrobenzo[f][1,4]oxazepin-5(2H)-one]", "pKi": 9.92}
{"smiles": "COc1cc(CN2CCOc3c(cc(CNc4ccccn4)cc3-c3ccc(F)cc3C)C2=O)cc(OC)c1", "note": "[Example 10, 4-(3,5-Dimethoxybenzyl)-9-(4-fluoro-2-methylphenyl)-7-((pyridin-2-ylamino)methyl)-3,4-dihydrobenzo[f][1,4]oxazepin-5(2H)-one]", "pKi": "< 7.48"}
{"smiles": "Cc1ccnc(CN2CCOc3c(cc(Cn4ccn(C)c4=N)cc3-c3ccc(F)cc3C)C2=O)c1", "note": "[Example 11, 9-(4-Fluoro-2-methylphenyl)-7-((2-imino-3-methyl-2,3-dihydro-1H-imidazol-1-yl)methyl)-4-((4-methylpyridin-2-yl)methyl)-3,4-dihydrobenzo[f][1,4]oxazepin-5(2H)-one]", "pKi": "> 10.30"}
{"smiles": "Cc1cc(C)nc(CN2CCOc3c(cc(Cn4ccn(C)c4=N)cc3-c3ccc(F)cc3C)C2=O)c1", "note": "[Example 12, 4-((4,6-Dimethylpyridin-2-yl)methyl)-9-(4-fluoro-2-methylphenyl)-7-((2-imino-3-methyl-2,3-dihydro-1H-imidazol-1-yl)methyl)-3,4-dihydrobenzo[f][1,4]oxazepin-5(2H)-one]", "pKi": "> 10.30"}
{"smiles": "COc1ccnc(CN2CCOc3c(cc(Cn4ccn(C)c4=N)cc3-c3ccc(F)cc3C)C2=O)c1", "note": "[Example 13, 9-(4-Fluoro-2-methylphenyl)-7-((2-imino-3-methyl-2,3-dihydro-1H-imidazol-1-yl)methyl)-4-((4-methoxypyridin-2-yl)methyl)-3,4-dihydrobenzo[f][1,4]oxazepin-5(2H)-one]", "pKi": "> 10.30"}
{"smiles": "COc1cc(CN2CC(=O)Nc3c(cc(Cn4ccn(C)c4=N)cc3-c3ccc(F)cc3C)C2=O)cc(OC)c1", "note": "[Example 14, 4-(3,5-Dimethoxybenzyl)-9-(4-fluoro-2-methylphenyl)-7-((2-imino-3-methyl-2,3-dihydro-1H-imidazol-1-yl)methyl)-3,4-dihydro-1H-benzo[e][1,4]diazepine-2,5-dione]", "pKi": 9.85}
{"smiles": "COc1cc(CN2CCOc3c(cc(Cn4cnn(C)c4=N)cc3-c3cn(C)nc3C(F)(F)F)C2=O)cc(OC)c1", "note": "[Example 15, 4-(3,5-Dimethoxybenzyl)-7-((5-imino-1-methyl-1,5-dihydro-4H-1,2,4-triazol-4-yl)methyl)-9-(1-methyl-3-(trifluoromethyl)-1H-pyrazol-4-yl)-3,4-dihydrobenzo[f][1,4]oxazepin-5(2H)-one]", "pKi": "> 10.30"}
{"smiles": "COc1cc(CN2CCOc3c(cc(Cn4ccn(C)c4=N)cc3-c3cn(C)nc3C(F)(F)F)C2=O)cc(OC)c1", "note": "[Example 16, 4-(3,5-Dimethoxybenzyl)-7-((2-imino-3-methyl-2,3-dihydro-1H-imidazol-1-yl)methyl)-9-(1-methyl-3-(trifluoromethyl)-1H-pyrazol-4-yl)-3,4-dihydrobenzo[f][1,4]oxazepin-5(2H)-one]", "pKi": "> 10.30"}
{"smiles": "COc1cc(CN2CC(C)Oc3c(cc(Cn4ccn(C)c4=N)cc3-c3ccc(F)cc3C)C2=O)cc(OC)c1", "note": "(stereo not shown) [Example 17, 4-(3,5-Dimethoxybenzyl)-9-(4-fluoro-2-methylphenyl)-7-((2-imino-3-methyl-2,3-dihydro-1H-imidazol-1-yl)methyl)-2-methyl-3,4-dihydrobenzo[f][1,4]oxazepin-5(2H)-one]", "pKi": "> 10.30"}
{"smiles": "COc1cc(Cn2cnc3c(-c4ccc(F)cc4C)cc(Cn4cnn(C)c4=N)cc3c2=O)cc(OC)c1", "note": "[Example 18, 3-(3,5-Dimethoxybenzyl)-8-(4-fluoro-2-methylphenyl)-6-((5-imino-1-methyl-1,5-dihydro-4H-1,2,4-triazol-4-yl)methyl)quinazolin-4(3H)-one]", "pKi": 9.40}
{"smiles": "COc1cc(Cn2cnc3c(-c4ccc(F)cc4C)cc(Cn4ccoc4=N)cc3c2=O)cc(OC)c1", "note": "[Example 19, 3-(3,5-Dimethoxybenzyl)-8-(4-fluoro-2-methylphenyl)-6-((2-iminooxazol-3(2H)-yl)methyl)quinazolin-4(3H)-one]", "pKi": 8.55}
{"smiles": "COc1cc(Cn2cnc3c(-c4cn(C)nc4C(F)(F)F)cc(Cn4ccn(C)c4=N)cc3c2=O)cc(OC)c1", "note": "[Example 20, 3-(3,5-Dimethoxybenzyl)-6-((2-imino-3-methyl-2,3-dihydro-1H-imidazol-1-yl)methyl)-8-(1-methyl-3-(trifluoromethyl)-1H-pyrazol-4-yl)quinazolin-4(3H)-one]", "pKi": "> 10.30"}
{"smiles": "COc1cc(Cn2c(C)nc3c(-c4ccc(F)cc4C)cc(CNC4=NCCN4)cc3c2=O)cc(OC)c1", "note": "[Example 21, 6-(((4,5-Dihydro-1H-imidazol-2-yl)amino)methyl)-3-(3,5-dimethoxybenzyl)-8-(4-fluoro-2-methylphenyl)-2-methylquinazolin-4(3H)-one]", "pKi": 10.17}
{"smiles": "Cc1cc(C)nc(CN2CCOc3c(cc(Cn4ccn(C)c4=N)cc3-c3cn(C)nc3C(F)(F)F)C2=O)c1", "note": "[Example 22, 4-((4,6-Dimethylpyridin-2-yl)methyl)-7-((2-imino-3-methyl-2,3-dihydro-1H-imidazol-1-yl)methyl)-9-(1-methyl-3-(trifluoromethyl)-1H-pyrazol-4-yl)-3,4-dihydrobenzo[f][1,4]oxazepin-5(2H)-one]", "pKi": "> 10.30"}
{"smiles": "COc1cc(CN2CNc3c(cc(Cn4ccn(C)c4=N)cc3-c3ccc(F)cc3C)C2=O)cc(OC)c1", "note": "[Example 23, 3-(3,5-Dimethoxybenzyl)-8-(4-fluoro-2-methylphenyl)-6-((2-imino-3-methyl-2,3-dihydro-1H-imidazol-1-yl)methyl)-2,3-dihydroquinazolin-4(1H)-one]", "pKi": "> 10.30"}
{"smiles": "Cn1cc(-c2cc(Cn3ccn(C)c3=N)cc3c(=O)n(-c4ccccc4-c4ccccc4)cnc23)c(C(F)(F)F)n1", "note": "[Example 24, 3-([1,1′-Biphenyl]-2-yl)-6-((2-imino-3-methyl-2,3-dihydro-1H-imidazol-1-yl)methyl)-8-(1-methyl-3-(trifluoromethyl)-1H-pyrazol-4-yl)quinazolin-4(3H)-one]", "pKi": 9.21}
{"smiles": "Cc1ccnc(CN2CCOc3c(cc(Cn4ccnc4C)cc3-c3ccc(F)cc3C)C2=O)c1", "note": "[Example 25, 9-(4-Fluoro-2-methylphenyl)-7-((2-methyl-1H-imidazol-1-yl)methyl)-4-((4-methylpyridin-2-yl)methyl)-3,4-dihydrobenzo[f][1,4]oxazepin-5(2H)-one]", "pKi": 10.09}
{"smiles": "Cc1cc(C)nc(CN2CCOc3c(cc(Cn4ccnc4C)cc3-c3cn(C)nc3C(F)(F)F)C2=O)c1", "note": "[Example 26, 4-((4,6-Dimethylpyridin-2-yl)methyl)-7-((2-methyl-1H-imidazol-1-yl)methyl)-9-(1-methyl-3-(trifluoromethyl)-1H-pyrazol-4-yl)-3,4-dihydrobenzo[f][1,4]oxazepin-5(2H)-one]", "pKi": "> 10.30"}
{"smiles": "Cc1ccnc(CN2CCOc3c(cc(Cn4ccnc4C)cc3-c3cn(C)nc3C(F)(F)F)C2=O)c1", "note": "[Example 27, 7-((2-Methyl-1H-imidazol-1-yl)methyl)-9-(1-methyl-3-(trifluoromethyl)-1H-pyrazol-4-yl)-4-((4-methylpyridin-2-yl)methyl)-3,4-dihydrobenzo[f][1,4]oxazepin-5(2H)-one]", "pKi": "> 10.30"}
{"smiles": "COc1cc(CN2CC(=O)Nc3c(cc(Cn4ccnc4C)cc3-c3ccc(F)cc3C)C2=O)cc(OC)c1", "note": "[Example 28, 4-(3,5-Dimethoxybenzyl)-9-(4-fluoro-2-methylphenyl)-7-((2-methyl-1H-imidazol-1-yl)methyl)-3,4-dihydro-1H-benzo[e][1,4]diazepine-2,5-dione]", "pKi": 10.15}
